According to PubChem BioAssay AID2313 (Broad Institute, 2010):
Screen size: about 22,000 compounds; about 460 (2.1%) were called active. This list was built around the results that the source calls inconclusive (neither active nor inactive); the mix of calls is not that of the screen.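 Rule for the calls: active = mean inhibition across valid replicates above about 65% (limit read from the data); inconclusive = mean under the limit, yet half or more replicates past it; inactive = the rest.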

Assay: Shh-driven Gli reporter inhibition – luminescence, Shh-LIGHT2 cells, Gli-luciferase, primary screen (AID 2313);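 note: pathway switched on by Shh-conditioned medium diluted 1 in 25 in low serum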
Conditions: 30 h, stronger effect = higher value

Row | Compound | inhibition
1 | C=C[C@@]1(C)CC(=O)[C@]2(O)[C@@]3(C)[C@@H](O)CCC(C)(C)[C@@H]3[C@H](O)[C@H](OC(=O)CCCN3CCN(C)CC3)[C@@]2(C)O1 | inconclusive: 59%
2 | COc1ccc(CN(C)C[C@H]2Oc3ccc(NC(=O)Nc4ccccc4)cc3CC(=O)N([C@H](C)CO)C[C@H]2C)cc1 | inconclusive: 32.2%
3 | COc1ccc(CN(C)C[C@@H]2Oc3c(NC(=O)Nc4ccc(F)cc4)cccc3C(=O)N([C@H](C)CO)C[C@H]2C)cc1 | inactive: 19.2%
4 | C[C@]12CC[C@H]3[C@@H](CCC4=CC(=O)CC[C@@]43C)[C@@H]1CC[C@@H]2C(=O)CO | inconclusive: 57.6%
5 | C/C(C=Nc1c(C)n(C)n(-c2ccccc2)c1=O)=C/c1ccccc1 | inactive: -15.5%
6 | CS(=O)(=O)c1sc(NC(=O)Nc2ccc(Cl)cc2)c2c1C=CCC2 | active: 106%
7 | Clc1cccc(Nc2nnc(-c3ccccc3)c3ccccc23)c1 | active: 93.9%
8 | C[C@@H]1CN([C@@H](C)CO)C(=O)c2cccc(NC(=O)Nc3ccc(F)cc3)c2O[C@@H]1CN(C)C(=O)Nc1ccc(C(F)(F)F)cc1 | inconclusive: 15.1%
9 | CNC[C@@H]1Oc2c(NC(=O)Nc3ccc(OC)cc3)cccc2C(=O)N([C@@H](C)CO)C[C@H]1C | inconclusive: 34.8%
10 | C[C@@H]1CN([C@@H](C)CO)C(=O)c2cccc(NC(=O)Nc3ccc(C(F)(F)F)cc3)c2O[C@H]1CN(C)C(=O)Nc1cccc2ccccc12 | inactive: -150%
11 | COc1ccc(CN(C)C[C@@H]2Oc3c(NS(=O)(=O)c4ccc(OC)cc4)cccc3C(=O)N([C@H](C)CO)C[C@@H]2C)cc1 | inconclusive: 17.1%
12 | C[C@H](CO)N1C[C@H](C)[C@H](CN(C)Cc2ccc3c(c2)OCO3)Oc2c(NC(=O)Nc3ccc4c(c3)OCO4)cccc2C1=O | inactive: -54.2%
13 | Cc1noc(C)c1NC(=O)Nc1ccc2c(c1)CC(=O)N([C@@H](C)CO)C[C@H](C)[C@H](CN(C)Cc1ccc(Oc3ccccc3)cc1)O2 | inactive: 28.8%
14 | Cc1noc(C)c1NC(=O)Nc1cccc2c1O[C@H](CN(C)S(=O)(=O)c1cccs1)[C@H](C)CN([C@@H](C)CO)C2=O | inconclusive: 21.9%
15 | C[C@@H]1CN([C@@H](C)CO)C(=O)Cc2cc(NC(=O)C3CCCCC3)ccc2O[C@@H]1CN(C)Cc1ccc(Oc2ccccc2)cc1 | inconclusive: 41.2%
16 | COc1ccc(NC(=O)N(C)C[C@@H]2Oc3c(NC(=O)c4ccncc4)cccc3C(=O)N([C@@H](C)CO)C[C@H]2C)cc1 | inconclusive: 30.1%
